Experimental data from the supplement of paper PMC10126150.
Values marked as one replicate rest on one cluster of the flow cell; about a third of the high ones do not repeat.

Test system: ATP
Assay: switch fluorescence ratio, 500 uM ATP over buffer (Cy3 cluster intensity, sum of 5 cycles each) (fold (ratio)); higher = stronger signal-on switching upon ATP binding; sequences stand for … in TCGTCGGCAGCGTCAGATGTGTATAAGAGACAGTTTTTTTTTTTTTTTTTTTTTTTTT…TC
Details: aptamer strand: ATP DNA aptamer (quencher-CACCTGGGGGAGTATTGCGGAGGAAGG + anchor), 100 nM annealed; ATP concentration: 500 uM; one replicate
Summary of the method: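 The quencher-labelled ATP aptamer, at 100 nM, was annealed to Cy3-labelled switching-strand clusters on a modified Illumina MiSeq flow-cell. The clusters were imaged in selection buffer, then after 15 min with 500 uM ATP at 22 °C, and this buffer/ATP cycle ran five times with NaOH stripping and re-annealing between runs. Per-cluster fluorescence ratios, summed target-cycle over summed buffer-cycle Cy3 intensity, were averaged per switch-domain sequence. Clusters outside 100-1000 RFU were excluded.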
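Further: ATP exposure 15 min at 22 °C before imaging.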

| Sequence | switch fluorescence ratio |
| --- | --- |
| GTTTTGCTCA | 0.934 |
| CAGTGCGAGT | 1.02 |
| TGTAGCCATG | 0.997 |
| TATGAGACGG | 0.914 |
| CCTACACTAA | 1.59 |
| GTTATATGTC | 1.01 |
| CACTAGCGGG | 1.01 |
| CCAATAGTAT | 0.935 |
| CTGTAACGGA | 1.05 |
| ATTTCCCTTA | 0.989 |
| CTGCTTAGCA | 1.02 |
| AGCACAGGAA | 1.02 |
| CTAGGGGCAT | 1.03 |
| CGATCCCGCC | 1.16 |
| TGATAACCGT | 1.02 |
| TCGCTTGAAT | 0.985 |
| TGCAGCCCCG | 1.06 |
| GTCTGTTACG | 1.05 |
| AACACCGGCC | 1.57 |
| GACTGTTGA | 0.947 |
| CCCTCATTAT | 1.01 |
| CGCTGCATTG | 1.23 |

| Sequence | switch fluorescence ratio |
| --- | --- |
| TAAGTACGCG | 1.08 |
| AGTTTGACAG | 1 |
| GATATCTAA | 0.992 |
| TGTGCCGGCG | 0.962 |
| ATGGCAACGT | 1 |
| GACAGTGAGC | 1.01 |
| TGAACTAGG | 0.943 |
| CGAAAGAAGT | 0.996 |
| GTGTATGTAG | 0.996 |
| CCCCTAGGGC | 1.15 |
| CGCCAGTGGG | 1.05 |
| GATTTACACT | 1.04 |
| TATGAAGGG | 0.963 |
| TCATTCCGCG | 2.4 |
| CGGAGTCCGT | 0.987 |
| TGAAGATCAT | 0.978 |
| GAGGCGATAT | 3.13 |
| GGAGGTAGCG | 0.984 |
| CAAATATGAC | 1.04 |
| TGCCATTTGG | 0.959 |
| TCACGAGCTA | 1.13 |
| ATAGAGTAAT | 0.973 |

| Sequence | switch fluorescence ratio |
| --- | --- |
| AGGGAATATG | 0.973 |
| CATGTTATCA | 0.981 |
| GAAAATGTTA | 0.865 |
| ACTGTTTAAT | 0.984 |
| TGACAAGCGC | 0.981 |
| CGTACTGAGT | 1.03 |
| AAGGTTACGG | 1.05 |
| CTTACGGATG | 1.02 |
| GATACATATG | 1.02 |
| CGGAAGACGA | 1.16 |
| ACGCAGTATC | 1.4 |
| CCGCAGGATT | 3.86 |
| ATATCTTGCC | 1.02 |
| CCACCTTTTA | 1.12 |
| GCCACTGACT | 1.03 |
| CGATTAGGTC | 0.943 |
| AACTCACTAT | 1.16 |
| CCGACATTCG | 1.02 |
| GATGAAATCT | 1.05 |
| GCCGTAGTTG | 1.01 |
| CCGGGAAGTG | 1.05 |
| ATAAAGCTT | 0.989 |

| Sequence | switch fluorescence ratio |
| --- | --- |
| ACTCGTGTGT | 1.03 |
| AACGGCATCC | 1.1 |
| GCACGGGTTC | 1.12 |
| GCTAGTGCAG | 1.01 |
| GGAACGCCAT | 1.08 |
| AAGTTATCTT | 0.993 |
| ATGTGTATG | 1.01 |
| TAAGGTGTAC | 1.07 |
| GCCTGGTTCG | 0.955 |
| ATGTCCGACA | 0.999 |
| GTCGACGGCG | 0.948 |
| GCGGCGAACG | 0.964 |
| AACGTGCGCC | 1.03 |
| ATGCATCCA | 0.964 |
| GAGGACTTTT | 0.996 |
| CCGGCCCCCG | 1.25 |
| TTATTTGACA | 1.04 |
| CCAGTGTGCA | 1.29 |
| CTGCATGGT | 1.07 |
